# Measured values reported in PMC12040169 (PLOS Biology, 2025).
# Some of the results follow.
# System: T1, C. trachomatis L2/434/Bu expressing GFP (CTL2-GFP)
# T1 construct: L2/434/Bu GFP intracellular growth in HeLa cells
# Design: species or system HeLa; C. trachomatis total inclusion area by high-content imaging, normalised to DMSO
# Conditions: total inclusion area; 28.5 h, 10 µM; inhibitor
# How it was run: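 Bulk GFP and resorufin signals were read first. Wells were then fixed, stained with Hoechst and imaged to detect GFP inclusions and host nuclei. MICs followed the previously described calculation.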
row,SMILES,% of control remaining
1,CC1(C)CC(NC(=O)C(=O)NC2CC(C)(C)NC(C)(C)C2)CC(C)(C)N1 [CBK261951],122.959
2,Cc1ccsc1C(=O)N1CCN(Cc2cc(=O)n3ccccc3n2)CC1 [CBK305044],61.8156
3,O=C(COc1ccc(NS(=O)(=O)c2ccc3oc4cc([N+](=O)[O-])ccc4c3c2)cc1)N1CCOCC1 [CBK268252],84.266
4,Cc1cccc(N(CC(=O)NCc2ccco2)S(=O)(=O)c2ccccc2)c1 [CBK263571],82.0106
5,Cn1ncc(Cl)c1C1CCCCCN1S(=O)(=O)c1ccc2[nH]c(=O)[nH]c(=O)c2c1 (stereo not shown) [CBK286303],89.3629
6,CC(C)N1CCC(C(=O)NC(=O)NCCOc2cccc3ccccc23)CC1 [CBK034807],90.9967
7,COCCc1ccccc1NC1CCN(c2nccs2)CC1 [CBK305476],76.9449
8,O=C(O)Cn1nnnc1CN1CCc2ccccc2C1 [CBK287097],106.893
9,Cc1cnc2[nH]c(C3CCCN(C(=O)c4cccnc4C)C3)cc2c1 (stereo not shown) [CBK285169],121.458
10,Cc1ccsc1-c1nc2cnccn2c1NC1CCCC1 [CBK283524],90.1135
11,NCC(NC(=O)c1cnc(-c2ccncc2)s1)C1CCCCC1 (stereo not shown) [CBK306502C],31.8483
12,CCOC(=O)c1c(C)n(-c2ccc(C)cc2)c2ccc(Oc3ncccc3C#N)cc12 [CBK261310],89.9379
13,CC(=O)Nc1ccc(C(=O)CSc2nnc(-c3ccncc3)o2)cc1 [CBK266349],121.225
14,Cc1cc(C)n2ncc(C(=O)N3CCCC3c3ccc(F)cc3)c2n1 (stereo not shown) [CBK305885],52.5095
15,O=S(=O)(Nc1cccc(-c2cnco2)c1)c1cc(C(F)(F)F)cc(C(F)(F)F)c1 [CBK067127],87.0663
16,CCCc1ccc(S(=O)(=O)Nc2ccc(C(=O)OC)cc2)cc1 [CBK028682],98.9616
17,O=C1COc2ccccc2CCCCC2(CCCNC2)CN1 (stereo not shown) [CBK292166],118.81
18,Cc1cc(Cl)ccc1OCCCC(=O)N1CCc2ccccc21 [CBK059016],110.676
19,O=C(COc1ccccc1)c1cn(CC(=O)N2CCc3ccccc32)c2ccccc12 [CBK267659],113.26
20,Cc1ccc2[nH]c3c(c2c1)CCNC31CCN(C(=O)[C@@H]2CCCC[C@@H]2C(=O)O)CC1 [CBK047222],72.7188
21,OC(COCc1ccccc1)CN1CCN(Cc2ccccc2)CC1 (stereo not shown) [CBK278297C],92.7241
22,COc1ccc(C(=O)N2CCC3(CCN(C(=O)CC4CCCCC4)C3)C2)cc1OC (stereo not shown) [CBK131770],82.4953
23,[O-][S+](c1ccc(Cl)c(Cl)c1)c1cc2c(N3CCCNCC3)nccc2s1 (stereo not shown) [CBK038304C],75.3523
24,CCN(CC)c1c(C)nc2ccc(C(=O)NCCc3ccccn3)cn12 [CBK145951],92.4611
25,Cc1nc(C2(O)CCCN(Cc3cccc(F)c3)CC2)sc1CCOc1ccccc1 (stereo not shown) [CBK286024],94.84
26,O=C(O)CCSc1nc2ccccc2nc1C(F)(F)F [CBK107866],87.3322
27,C=CCn1c(Cc2csc(NC(=O)c3ccc([N+](=O)[O-])cc3)n2)n[nH]c1=S [CBK295290],100.575

row,SMILES,% of control remaining
1,Cc1cc(C)cc(OCc2nnc(SCC(=O)Nc3c(F)cc(F)cc3Br)n2C)c1 [CBK268604],93.4598
2,CCOC(=O)N(C)c1c(CC)nc2ccc(C(=O)N(C)CCCN(C)C)cn12 [CBK146478],98.6808
3,Oc1nsnc1-c1ccccc1 [CBK026014],98.3478
4,CN1CC=C(/C=C/c2ccc(Sc3ncccn3)o2)CC1 [CBK283797],73.9186
5,c1ccc(-c2nn3c(CN4CCOCC4)nnc3c3ccccc23)cc1 [CBK269779],126.611
6,CC(C)NC(=O)[C@@H]1CN(C)C[C@]12CCc1ccccc1C2=O [CBK284764],64.3661
7,O=C(c1sccc1NS(=O)(=O)c1ccc(Oc2ccccc2)cc1)N1CCOCC1 [CBK050423],87.7441
8,CCN(Cc1ccncc1)C(=O)NCCCSC [CBK155125],92.5028
9,O=C(NCCCc1ccccn1)c1cnn(-c2ccc(F)cc2)c1 [CBK283287],101.486
10,Cc1cc(C)n(C(CC(=O)c2ccccc2)C(=O)O)n1 (stereo not shown) [CBK287209],99.4581
11,Cc1nc(-c2ccccc2)sc1CNC(=O)C1CC1C (stereo not shown) [CBK092369],114.085
12,COc1ccc(-c2nc3ccc(C)cc3c(C(=O)NCCc3ccc(S(N)(=O)=O)cc3)c2C)cc1 [CBK267753],93.4539
13,Cc1nc2c(OCc3ccc(F)c(F)c3)cccn2c1N(C)CC1CC1 [CBK147276],86.7666
14,COc1cc(C=O)ccc1OCC(=O)Nc1ccc(C)c(Cl)c1 [CBK266190],108.58
15,COc1cccc(C(=O)N2CCC(NC(=O)c3csc(-c4ccccc4)n3)CC2)c1 [CBK155030],99.447
16,Cc1cccc(C(=O)N2CCN(S(=O)(=O)c3sc(C(=O)O)c(C)c3C(=O)O)CC2)c1 [CBK297124],90.9459
17,COCCCN1C(=O)C(O)=C(C(=O)c2ccc(C)o2)C1c1ccc(Br)cc1 (stereo not shown) [CBK264876],111.908
18,CCCS(=O)(=O)Nc1cccc(-c2nnn[nH]2)c1 [CBK155417],81.9167
19,Cc1cc2[nH]cc(C(=O)N3CCCC3c3ccco3)c(=O)n2n1 (stereo not shown) [CBK307390],82.2277
20,Cc1ccc(S(=O)(=O)N(C)C)cc1NC(=O)C12CCC(C)(C(=O)C1)C2(C)C (stereo not shown) [CBK266551],93.7413
21,CC(=O)N1CCC(c2nc(C3CCCC3)no2)C1 (stereo not shown) [CBK285452],99.0037
22,O=C(CN1CCN(S(=O)(=O)N2CCCCCC2)CC1)Nc1cc(Cl)ccc1Cl [CBK269587],98.2244
23,COCCN(CCOC)Cc1c(C)nc2c(C)c(C)ccc2c1O [CBK265031],113.955
24,Cc1cc2c(cc3c(=O)n(CC(=O)N4CCCC4)nc(C)n32)s1 [CBK284065],103.989
25,CNC(=O)c1ccc(-c2ccc3[nH]ccc3c2)nc1N(C)C [CBK106146],87.7525
26,Sc1nnc(-c2ccncc2)n1/N=C/c1cccnc1 [CBK265336],84.3132
27,Cc1cc2occ(CC(=O)NC3CCCN(C)C3)c2cc1C (stereo not shown) [CBK282611],110.727

row,SMILES,% of control remaining
1,N[C@@H](Cc1c[nH]c2ccccc12)C(=O)N1CC[C@H]2NC(=O)[C@@H](Cc3ccccc3)NC(=O)C3(C/C=C/C[C@@H]2C1)CCOCC3 [CBK292202],114.864
2,Cn1nnc(NC(=O)COc2ccc(C3CCCCC3)cc2)n1 [CBK266442],121.426
3,CS(=O)(=O)N(Cc1ccccc1)c1ccc(C(=O)Nc2ccccc2C(=O)O)cc1 [CBK264117],98.5118
4,COc1cc(CNC(=O)NC(=O)C2CCN(CCc3cccc(O)c3)CC2)cc(OC)c1OC [CBK034857],98.5281
5,Cc1csc(CC(C)n2cc(Cl)cn2)n1 (stereo not shown) [CBK304797],40.2177
6,Cc1nn(C)cc1-c1cncn1CCCC(C)(C)CO [CBK281492],93.7756
7,O=C(Nc1cccc(C(F)(F)F)c1)c1nc[nH]n1 [CBK027341],109.332
8,CC(=O)c1c(C)[n+]([O-])c2cc(Cl)c(Cl)cc2[n+]1[O-] [CBK265017],103.689
9,S=C(NCCc1ccc(Cl)cc1)NCc1ccco1 [CBK266812],106.18
10,O=C(c1ccccc1NS(=O)(=O)c1ccc(Br)cc1)N1CCOCC1 [CBK043340],114.464
11,Cc1ccc2cc(CN(Cc3ccco3)C(=O)c3cccs3)c(O)nc2c1 [CBK269274],110.767
12,O=C(Nc1cccc(-c2nc3ccccc3s2)c1)c1ccc(S(=O)(=O)N2CCCC2)cc1 [CBK261787],101.907
13,CC(C)(C)C1CCc2onc(C(=O)NCCn3ccnc3)c2C1 (stereo not shown) [CBK281581],83.2098
14,CC(NS(=O)(=O)c1cc(Cl)ccc1Cl)C(=O)Nc1ccccc1 (stereo not shown) [CBK267871],95.5009
15,C=C(C)CN1CCN(Cc2cnn(C3CCCCC3)c2)CC1 [CBK282828],86.2537
16,CCCCc1ccc(-c2cc3ncccc3nc2N)cc1 [CBK081198],89.8862
17,O=C(O)CCc1c(-c2ccccc2)cc2ccccn12 [CBK266308],96.7595
18,Cc1nn(CC(=O)NC2CCCC2)c(=O)c2cc3sccc3n12 [CBK284023],60.3624
19,Cc1cnccc1-c1c[nH]nc1-c1cccc(CNS(=O)(=O)c2ccc(F)c(F)c2)c1 [CBK285627],98.1844
20,Cc1c(C(=O)Nc2ccc(S(=O)(=O)N3CCCCCC3)cc2)oc2ccc(Cl)cc12 [CBK267664],84.6973
21,NCCCN(Cc1ccco1)C1CCCC1 [CBK268856],82.9268
22,CS(=O)(=O)c1ccc(-c2ccc(COC3CCN(C(=O)Cc4cccc(C(F)(F)F)c4)CC3)cn2)cc1 [CBK162231T],86.0929
23,CC(C)C(CNCc1cncnc1)c1ccnn1C (stereo not shown) [CBK304190],90.5738
24,Cc1ccc(OCc2nc(C)c(C(=O)N3CCCC(C)C3)s2)cc1 (stereo not shown) [CBK305356],64.6325
25,CCc1c(C(=O)NC(C)c2cccc(Cl)c2)cnc2cc(O)nn12 (stereo not shown) [CBK291243],96.7632
